This is one part of the list. The energies were worked out here from pooled read counts, against the library average; single values are noisy.
Each sequence was assayed against T1, Pho4 (S. cerevisiae) (UniProt P07270) (assay: relative binding free energy (BET-seq); higher = weaker binding). Conditions: reference: library average.
T1 sequence: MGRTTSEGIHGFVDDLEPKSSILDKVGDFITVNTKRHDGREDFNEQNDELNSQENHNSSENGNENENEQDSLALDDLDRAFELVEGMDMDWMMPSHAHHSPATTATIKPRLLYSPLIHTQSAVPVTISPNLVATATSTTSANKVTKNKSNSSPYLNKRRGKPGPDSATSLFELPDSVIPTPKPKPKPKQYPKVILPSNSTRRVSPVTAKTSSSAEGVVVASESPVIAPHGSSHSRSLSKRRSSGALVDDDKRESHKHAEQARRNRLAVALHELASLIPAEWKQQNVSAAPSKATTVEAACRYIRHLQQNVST

Sequence | relative binding free energy
TTATGCACGTGTGCCG | -0.15 kcal/mol
ACTGTCACGTGGTTTA | 0.2 kcal/mol
GGTGCCACGTGGTTGG | -0.14 kcal/mol
AGGCTCACGTGTTATT | 0.25 kcal/mol
GTTTGCACGTGTTAAT | 0.05 kcal/mol
AGGGGCACGTGTGAAC | 0.02 kcal/mol
GGGATCACGTGTCGGT | 0.25 kcal/mol
GAAGGCACGTGTGTAG | 0.04 kcal/mol
GTGGACACGTGTTGAG | 0.09 kcal/mol
GGATACACGTGGCGTA | 0 kcal/mol
ATGATCACGTGGATTA | 0.23 kcal/mol
AGCTTCACGTGATAGG | 0.29 kcal/mol
GTTTCCACGTGGGTGA | -0.17 kcal/mol
CGGCTCACGTGGGGTG | 0.04 kcal/mol
TACTGCACGTGGCGGG | -0.2 kcal/mol
GGATGCACGTGGTTTA | -0.04 kcal/mol
GTGTGCACGTGCTAGA | -0.02 kcal/mol
TTCAGCACGTGAAGTA | 0.32 kcal/mol
TATGCCACGTGGAGGA | -0.11 kcal/mol
CGATGCACGTGGCGGG | -0.2 kcal/mol
GTGTGCACGTGGCCTT | -0.09 kcal/mol
TGTTCCACGTGATGTA | 0.03 kcal/mol
CGTTGCACGTGTGGTA | -0.06 kcal/mol

Sequence | relative binding free energy
AGGTCCACGTGTGTGC | -0.01 kcal/mol
GGGCTCACGTGGCGTT | 0.11 kcal/mol
GTAATCACGTGTCTTT | 0.2 kcal/mol
TTTGGCACGTGAGGGG | 0.19 kcal/mol
TTGAGCACGTGTGTAG | -0.12 kcal/mol
ATAGACACGTGGGGTT | -0.1 kcal/mol
TCAATCACGTGGTTTC | 0.27 kcal/mol
ATTTTCACGTGGGCCG | 0.2 kcal/mol
CGTGGCACGTGGATTA | -0.07 kcal/mol
AGTTACACGTGTCGAT | 0.15 kcal/mol
GGCTTCACGTGTTTGC | 0.34 kcal/mol
GCGGGCACGTGGCGGA | -0.14 kcal/mol
TTAATCACGTGTGTCT | 0.11 kcal/mol
TGAAACACGTGGGAGT | -0.1 kcal/mol
GGTATCACGTGGTTTG | 0.12 kcal/mol
TGAGTCACGTGATTGA | 0.23 kcal/mol
GTGGTCACGTGTTTCT | 0.08 kcal/mol
GTTATCACGTGTGTTC | 0.17 kcal/mol
AGGGTCACGTGTATGG | 0.01 kcal/mol
TGTGGCACGTGTCATT | -0.1 kcal/mol
GAGGGCACGTGGGACT | -0.26 kcal/mol
GTTAACACGTGATATG | 0.07 kcal/mol
AGTGTCACGTGCCTGG | -0.03 kcal/mol

Sequence | relative binding free energy
GTTAGCACGTGGCGTA | -0.05 kcal/mol
AGTATCACGTGTGTCG | 0.11 kcal/mol
GGGGTCACGTGCGGAA | 0.29 kcal/mol
AACGGCACGTGTAGGG | -0.11 kcal/mol
GTGATCACGTGAGCGG | 0.32 kcal/mol
GCGTACACGTGTGTTT | 0.09 kcal/mol
AGATTCACGTGTGGAT | 0.37 kcal/mol
TAAAGCACGTGGGGAC | -0.16 kcal/mol
ATGGTCACGTGTATGA | 0.07 kcal/mol
TGAATCACGTGCGGTG | 0.18 kcal/mol
TGAAACACGTGTAGTT | 0.07 kcal/mol
GTATTCACGTGTAGTG | 0.24 kcal/mol
GGAGGCACGTGGCATA | -0.09 kcal/mol
GGTGTCACGTGTTAAC | 0.13 kcal/mol
CATGTCACGTGTTGAG | -0.01 kcal/mol
TGAATCACGTGGACTG | 0.23 kcal/mol
TGGTACACGTGGAATA | 0.06 kcal/mol
TTTTGCACGTGTGCAG | -0.08 kcal/mol
GTCGGCACGTGGCGAG | -0.09 kcal/mol
AAGTGCACGTGTTGAG | -0.01 kcal/mol
AGGCTCACGTGGTGGG | 0.18 kcal/mol
GGGGGCACGTGTGGGC | -0.03 kcal/mol
TCGATCACGTGGCGGT | 0.03 kcal/mol

Sequence | relative binding free energy
GGGATCACGTGGTGGA | 0.21 kcal/mol
TGGGGCACGTGCTTGT | -0.16 kcal/mol
ACCGGCACGTGGTGTG | -0.29 kcal/mol
GTCGGCACGTGACGTG | 0.12 kcal/mol
ATGATCACGTGAGATG | 0.22 kcal/mol
TTGTACACGTGGATGT | -0.01 kcal/mol
AAGGACACGTGGTTTA | 0 kcal/mol
TAGTGCACGTGGCTTT | -0.13 kcal/mol
AGCGACACGTGGTGGC | -0.05 kcal/mol
GTTAGCACGTGGGCAG | -0.16 kcal/mol
TGTTGCACGTGGAAGT | 0.1 kcal/mol
AGGGACACGTGATGGC | 0.03 kcal/mol
AAGGTCACGTGAAGAG | 0.38 kcal/mol
ACATTCACGTGGGTCT | 0.19 kcal/mol
TGGAACACGTGTGGCT | 0.08 kcal/mol
GTTGTCACGTGTCAGG | 0.14 kcal/mol
GGTGGCACGTGTTATA | -0.06 kcal/mol
GCATGCACGTGGGTTT | -0.14 kcal/mol
TTGGTCACGTGCGGGG | 0.06 kcal/mol
TGCGTCACGTGGTTGT | -0.02 kcal/mol
ATGTGCACGTGAATCT | 0.25 kcal/mol
TCTGTCACGTGGATTA | 0.08 kcal/mol
ATGGTCACGTGGTATC | 0.02 kcal/mol

Sequence | relative binding free energy
ACTTTCACGTGTGGAT | 0.4 kcal/mol
GTTTTCACGTGTAGCG | 0.4 kcal/mol
AGAGCCACGTGGGAGG | -0.17 kcal/mol
GTAATCACGTGTGGGC | 0.39 kcal/mol
AGGTGCACGTGGGCGC | -0.16 kcal/mol
TGTAACACGTGGTGTC | -0.21 kcal/mol
TTGGGCACGTGCCAGT | -0.25 kcal/mol
GAGATCACGTGAGGGG | 0.48 kcal/mol
CTTCGCACGTGAAGGT | 0.28 kcal/mol
ATAGTCACGTGAGTTC | 0.31 kcal/mol
GGCGCCACGTGGGAGG | -0.08 kcal/mol
GTGCGCACGTGGGCGA | -0.28 kcal/mol
TGTGCCACGTGAGGCT | 0.12 kcal/mol
ATAGTCACGTGTCTGG | 0.07 kcal/mol
CTAAGCACGTGGGTTT | -0.22 kcal/mol
CTTGGCACGTGTGAGT | -0.09 kcal/mol
ATAGGCACGTGGGTCT | -0.19 kcal/mol
TAGTGCACGTGTGTGT | 0.04 kcal/mol
GTTTCCACGTGGTGGA | 0.14 kcal/mol
TTAAACACGTGTAAGG | -0.04 kcal/mol
GGGAGCACGTGGTTAG | -0.11 kcal/mol
GTTCGCACGTGGGGGA | -0.19 kcal/mol
TGTATCACGTGTTTGT | 0.18 kcal/mol

Reference: the BET-seq Pho4 binding data (Le et al. 2018)
